Assays:
[1] = target: Fel d1 specific IgE on basophils of cat allergic donors; assay: cell-based or functional assay
anti-Fel d1 mAB 6F9 = assay: sandwich ELISA: mAB 6F9 coated, Fel d1 protein in doubling dilutions 80-0.16 ng/ml, detected with biotinylated mAB 3E4; Fel d1 (ng/ml) at OD50%

| Binder | Percentage of degranulation (CD63 on basophils), No IgG [1] [%] | EC50 (anti-Fel d1 mAB 6F9) [ng/mL] |
| --- | --- | --- |
| FELD1-15aa-HC (protein, Felis domesticus, not shown: small tags and cut ends) chain (part 1 of 2): VKMAETCPIFYDVFFAVANGNELLLDLSLTKVNATEPERTAMKKIQDCYVENGLISRVLDGLVMTTISSSKDCMGEAVQNTVEDLKLNTLGRGGGGSGGGGSGGGGS[letters of about 80 residues omitted] chain (part 2 of 2): GGC | 33 | 7.9 |
| FELD1-10aa-HC (protein, Felis domesticus, not shown: small tags and cut ends) chain (part 1 of 2): VKMAETCPIFYDVFFAVANGNELLLDLSLTKVNATEPERTAMKKIQDCYVENGLISRVLDGLVMTTISSSKDCMGEAVQNTVEDLKLNTLGRGGGGSGGGGS[letters of about 80 residues omitted] chain (part 2 of 2): GGC |  | 6.7 |
